Results: the supplement of paper PMC10441789
The other results are listed elsewhere or left out. Antibody binding of pooled human sera (four to six donors per pool; dilution not stated) to peptides of the Trypanosoma cruzi antigen TSSA on microarrays. Quantile-normalised fluorescence in arbitrary units, mean of duplicate arrays; higher = more binding. No active / inactive call. The uninfected pools are read here as the healthy donors of the same country. The strongest signals lie near the top of the scale (about 60,000).

Experiments:
Experiment in all cases: antibody binding signal (normalised fluorescence) (arbitrary fluorescence units); higher = stronger serum antibody binding to peptide
[1] = test system: pooled sera of chronic Chagas disease patients, Bolivia
Procedure: (§1)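 Microarray of 15-residue peptides over residues 30-55 of Trypanosoma cruzi TSSAII, each with 1 to 10 substitutions at naturally variable positions, probed with one serum pool per country.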

[2] = test system: pooled sera of chronic Chagas disease patients, Brazil
Procedure: as §1

[3] = test system: pooled sera of chronic Chagas disease patients, Colombia
Procedure: as §1

[4] = test system: pooled sera of chronic Chagas disease patients, Mexico
Procedure: as §1

[5] = test system: pooled sera of chronic Chagas disease patients, USA
Procedure: as §1

[6] = test system: pooled sera of uninfected people, Argentina
Procedure: as §1

[7] = test system: pooled sera of uninfected people, Bolivia
Procedure: as §1

[8] = test system: pooled sera of uninfected people, Brazil
Procedure: as §1

[9] = test system: pooled sera of uninfected people, Colombia
Procedure: as §1

[10] = test system: pooled sera of uninfected people, Mexico
Procedure: as §1

[11] = test system: pooled sera of uninfected people, USA
Procedure: as §1

| Sequence | antibody binding signal [1] | antibody binding signal [2] | antibody binding signal [3] | antibody binding signal [4] | antibody binding signal [5] | antibody binding signal [6] | antibody binding signal [7] | antibody binding signal [8] | antibody binding signal [9] | antibody binding signal [10] | antibody binding signal [11] |
| --- | --- | --- | --- | --- | --- | --- | --- | --- | --- | --- | --- |
| GTDKKAAAGEAPSQP | 9460 | 40000 | 3020 | 472 | 12200 | 127 | 354 | 133 | 98.8 | 222 | 121 |
| KKPAAGETPSQPGAS | 802 | 28000 | 152 | 148 | 955 | 315 | 549 | 89.6 | 185 | 74.7 | 418 |
| KAATGEAPSPPGASS | 26000 | 29300 | 338 | 200 | 21200 | 283 | 140 | 129 | 118 | 109 | 136 |
| PPSGKDKKPATGGTP | 364 | 642 | 805 | 40000 | 1360 | 256 | 285 | 254 | 236 | 155 | 173 |
| SGTDNKAAAGEAPSQ | 15800 | 42700 | 403 | 184 | 11300 | 81.1 | 672 | 1060 | 80.4 | 99 | 194 |
| GKDKKTAAGGTPSQS | 222 | 193 | 3330 | 372 | 1480 | 177 | 83.6 | 242 | 104 | 142 | 113 |
| GKDNKAATGGAPSPS | 231 | 423 | 1420 | 1840 | 2010 | 241 | 285 | 122 | 157 | 78 | 102 |
| GTDNKAATGGAPSPP | 429 | 31600 | 675 | 669 | 1620 | 303 | 454 | 1610 | 270 | 228 | 111 |
| DNKAAAGETPSPSGA | 322 | 5740 | 191 | 251 | 1260 | 160 | 323 | 213 | 116 | 342 | 621 |
| PPSGKDNKPATGGTP | 531 | 19600 | 502 | 6720 | 11200 | 491 | 1070 | 218 | 272 | 177 | 256 |
| TEKKTAAGEAPSPPG | 464 | 664 | 680 | 623 | 8620 | 153 | 128 | 292 | 2060 | 278 | 192 |
| TENKPAAGETPSPSG | 764 | 15300 | 517 | 515 | 4670 | 151 | 401 | 217 | 145 | 275 | 1670 |
| NKTAAGETPSPSGAS | 780 | 2730 | 375 | 966 | 1580 | 484 | 905 | 617 | 326 | 265 | 1330 |
| TDNKAATGGAPSQPG | 1790 | 23600 | 564 | 441 | 1230 | 289 | 344 | 309 | 200 | 187 | 154 |
| EKKTAAGEAPSPPGA | 251 | 753 | 626 | 401 | 6190 | 182 | 1150 | 142 | 1210 | 186 | 1050 |
| GTDNKAAAGGTPSQP | 763 | 23500 | 2740 | 273 | 993 | 294 | 726 | 2970 | 292 | 716 | 96.8 |
| TEKKPAAGGTPSQPG | 200 | 639 | 6640 | 476 | 1860 | 276 | 192 | 1710 | 221 | 495 | 1390 |
| PSGTENKPAAGEAPS | 40000 | 46300 | 1420 | 3990 | 21600 | 1540 | 1680 | 403 | 338 | 542 | 512 |
| NKTATGGAPSPPGAS | 385 | 2110 | 838 | 404 | 1110 | 825 | 1310 | 293 | 615 | 231 | 1600 |
| KKAATGEAPSQPGAS | 6380 | 36600 | 170 | 145 | 19200 | 365 | 182 | 95 | 238 | 84.4 | 279 |
| SGKEKKTAAGGAPSQ | 267 | 1860 | 6370 | 5450 | 4790 | 153 | 94.1 | 114 | 115 | 139 | 111 |
| STPPSGKENKPAAGG | 6140 | 27800 | 516 | 13500 | 17300 | 4600 | 2250 | 261 | 751 | 406 | 905 |
| GTEKKPAAGETPSQP | 1860 | 33100 | 1060 | 1640 | 3630 | 90.1 | 1200 | 1990 | 788 | 410 | 791 |
| GTDNKPAAGGAPSPS | 549 | 43600 | 2300 | 281 | 742 | 259 | 605 | 563 | 273 | 552 | 149 |
| GKEKKTAAGETPSPS | 259 | 418 | 2720 | 2510 | 3440 | 125 | 108 | 94.9 | 216 | 84.9 | 543 |
| PPSGTDKKTATGEAP | 20300 | 21000 | 3090 | 14500 | 18100 | 329 | 261 | 286 | 420 | 838 | 219 |
| GKEKKTAAGGAPSQS | 241 | 211 | 4710 | 1180 | 1160 | 123 | 108 | 119 | 128 | 96.7 | 141 |

| Sequence | antibody binding signal [1] | antibody binding signal [2] | antibody binding signal [3] | antibody binding signal [4] | antibody binding signal [5] | antibody binding signal [6] | antibody binding signal [7] | antibody binding signal [8] | antibody binding signal [9] | antibody binding signal [10] | antibody binding signal [11] |
| --- | --- | --- | --- | --- | --- | --- | --- | --- | --- | --- | --- |
| GTDNKTATGGAPSQP | 2530 | 27500 | 796 | 949 | 604 | 330 | 623 | 1850 | 142 | 357 | 187 |
| TDKKTATGETPSPPG | 577 | 1070 | 404 | 322 | 6500 | 192 | 171 | 288 | 126 | 201 | 1170 |
| KKPAAGGAPSPPGAS | 194 | 379 | 1450 | 251 | 557 | 321 | 249 | 107 | 124 | 79 | 346 |
| STPPSGTDNKPATGE | 41200 | 46800 | 4100 | 8800 | 40800 | 1740 | 889 | 398 | 311 | 544 | 347 |
| TISTPPSGKDKKTAT | 403 | 723 | 224 | 37900 | 530 | 129 | 273 | 98 | 112 | 91.8 | 93.4 |
| KAAAGGTPSQPGASS | 164 | 451 | 4620 | 267 | 920 | 309 | 120 | 422 | 148 | 261 | 119 |
| PPSGKENKAAAGEAP | 5150 | 6700 | 1270 | 2540 | 9620 | 4110 | 2190 | 359 | 1230 | 238 | 356 |
| TDNKPAAGETPSQPG | 4060 | 48600 | 380 | 183 | 6050 | 92.6 | 892 | 244 | 319 | 282 | 114 |
| TENKPAAGGTPSPPG | 752 | 1700 | 1090 | 648 | 304 | 248 | 452 | 683 | 541 | 214 | 238 |
| GTEKKTAAGGTPSQP | 338 | 330 | 10000 | 541 | 1960 | 259 | 395 | 717 | 281 | 675 | 201 |
| SGTEKKAAAGGAPSQ | 253 | 1260 | 9060 | 2150 | 1490 | 185 | 368 | 307 | 147 | 157 | 139 |
| KDKKAAAGEAPSQSG | 1150 | 1570 | 191 | 307 | 7600 | 118 | 87.2 | 94.2 | 104 | 89.8 | 141 |
| KEKKAAAGETPSQSG | 205 | 266 | 154 | 122 | 510 | 101 | 99.8 | 81.8 | 99.9 | 88.8 | 95.9 |
| GKDKKTAAGEAPSPS | 199 | 289 | 692 | 722 | 3540 | 172 | 84.6 | 98.5 | 272 | 74.6 | 77.8 |
| SGTDKKTATGETPSQ | 1060 | 4970 | 1280 | 239 | 7410 | 217 | 240 | 199 | 163 | 256 | 126 |
| TENKAAAGGTPSQSG | 243 | 276 | 3030 | 413 | 1150 | 166 | 158 | 1620 | 283 | 228 | 157 |
| KDNKPAAGETPSQSG | 201 | 18000 | 301 | 235 | 2220 | 465 | 485 | 211 | 300 | 512 | 94 |
| SGKEKKTAAGGAPSP | 625 | 1950 | 6540 | 4360 | 4510 | 164 | 108 | 104 | 116 | 132 | 120 |
| EKKTATGGTPSPPGA | 1080 | 484 | 3830 | 690 | 1450 | 305 | 829 | 379 | 672 | 210 | 662 |
| GTEKKPAAGGTPSPS | 199 | 745 | 5610 | 1390 | 1920 | 142 | 969 | 1910 | 218 | 407 | 1570 |
| GKEKKTAAGETPSQS | 268 | 337 | 2220 | 2490 | 2180 | 108 | 103 | 106 | 216 | 87.7 | 127 |
| TDNKTAAGGTPSQSG | 359 | 398 | 4460 | 431 | 1330 | 442 | 294 | 1370 | 181 | 2350 | 174 |
| PPSGTDKKPATGETP | 31900 | 43800 | 9620 | 25100 | 21500 | 411 | 438 | 446 | 608 | 6010 | 379 |
| SGTENKTATGGTPSP | 9860 | 16100 | 827 | 867 | 4080 | 429 | 340 | 349 | 415 | 289 | 170 |
| TISTPPSGKENKPAT | 23300 | 23300 | 607 | 7300 | 12500 | 3400 | 1710 | 355 | 617 | 243 | 787 |
| GTENKPATGGTPSPP | 4680 | 6200 | 890 | 2210 | 1500 | 424 | 1550 | 644 | 429 | 261 | 162 |
